The source of these data is FireProtDB (doi:10.1021/bi00139a017).

The conditions of this data set: Gallus gallus, 35 °C, GdnHCl, Fluorescence, Sodium acetate 0.1 M, reversible: yes.

Take “Lysozyme C wild type (sequence not shown)”: the denaturant m value turned out to be 2.59 kcal/mol/M (pH 3.5), 2.59 kcal/mol/M (pH 4), 2.59 kcal/mol/M (pH 4.5) and 2.59 kcal/mol/M (pH 5.5). Moreover, the “denaturant midpoint (higher = more stable)” value runs as follows: (pH 3.5) 2.71 M; (pH 4) 3.26 M; (pH 4.5) 3.69 M; (pH 5.5) 3.61 M. The unfolding free energy by setting is: (pH 3.5) 7.02 kcal/mol; (pH 4) 8.44 kcal/mol; (pH 4.5) 9.56 kcal/mol; (pH 5.5) 9.35 kcal/mol.
